# Results as given in PubChem BioAssay AID686979 (National Center for Advancing Translational Sciences (NCATS), 2013).
# In all, about 420,000 compounds went through this assay and about 50,000 (12%) were called active. This list was built around the results that the source calls inconclusive (neither active nor inactive); the mix of calls is not that of the screen. Calls follow the shape of the dose curve; as a rule, active = well fitted inhibition curve with a large enough effect; inconclusive = small, poorly fitted or top-dose-only effect; inactive = flat fitted curve, though single readings scatter. Potencies of inconclusive entries are left out as doubtful fits.
# Experiment: qHTS for Inhibitors of human tyrosyl-DNA phosphodiesterase 1 (TDP1): qHTS in cells in presence of CPT; also: nearly all actives have a fitted effect of over 55% in size
# Conditions: chicken DT40 Tdp1-/-;hTDP1 cells + 20 nM CPT, ATP luminescence, 48 h; activity change, negative = growth inhibition: at 46.2 µM (top of the series) unless noted
# Outline: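 Chicken DT40 Tdp1-/- cells complemented with human TDP1, 400 cells/well, exposed to compounds plus 20 nM camptothecin for at least 48 h at 37 C; viability read as ATP content by CellTiter-Glo luminescence.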
# % is scaled to controls: 0 for no effect and ±100 for the full control effect; potency is read from the fitted curve at half-maximal effect; tags tell the direction and shape of the fitted curve.
Compound,Potency,"activity change, negative = growth inhibition"
CC(NC(=O)CSc1cccc(C(F)(F)F)c1)c1ccccc1 (stereo unspecified),"inconclusive [inhibitor, single point]",–
O=C(c1ccc(Br)cc1)C(CN1CCOCC1)c1ccccc1 (stereo unspecified),active: 1.3 µM,–
O=C(Nc1cccn(Cc2c(Cl)cccc2Cl)c1=O)c1c(Cl)cccc1Cl,"inconclusive [inhibitor, single point]",–
CC(=O)Nc1cccc(Nc2ccc(C#N)cc2)c1,–,inactive: -39.3%
O=C(CN1CCN(S(=O)(=O)c2ccc(F)c(Cl)c2)CC1)N1CCc2ccccc2C1,"inconclusive [inhibitor, single point]",–
CSc1nc(Oc2cccc(C(F)(F)F)c2)cc(C(F)(F)F)n1,"inconclusive [inhibitor, single point]",–
O=C(Nc1cccc(C(F)(F)F)c1)C1Cc2c(-c3cccc(F)c3)ccnc2O1 (stereo unspecified),"inconclusive [inhibitor, single point]",–
COc1ccccc1CNC(=O)c1ccc(-c2ccccc2Cl)o1,"inconclusive [inhibitor, single point]",–
O=C(Nc1ccc(Cl)cc1)N1CCCN(c2ccc(C(F)(F)F)cc2[N+](=O)[O-])CC1,"inconclusive [inhibitor, single point]",–
CC(C)[C@@H]1COC(c2cccc(C3=N[C@H](C(C)C)CO3)n2)=N1,–,inconclusive: -7.88% [inhibitor]
COCc1cc(C)nc(SCc2ccc(F)cc2)c1C#N,"inconclusive [inhibitor, single point]",–
C(=C\c1nc(-c2ccccc2)no1)/c1ccccc1,–,inactive: -29.7%
O=[N+]([O-])c1cccnc1Oc1ccccc1F,–,inconclusive: -31.6% [inhibitor]
COc1ccc(N2CCN(Cc3nc4c(c(=O)[nH]c(=O)n4C)n3CC(C)C)CC2)cc1,–,inactive: -5.12%
Cc1ccc(S(=O)(=O)c2nnn3c2nc(NCCc2ccccc2)c2sccc23)cc1,active: 16.4 µM,–
Cc1sc2ncnc(SCC(=O)NC(C)C(C)C)c2c1C (stereo unspecified),active: 16.4 µM,–
CSc1sc(-c2ccnc(SCC(=O)C(C)(C)C)n2)c2c1C(=O)CC(C)(C)C2,"inconclusive [inhibitor, partial curve]",–
CC(NC(=O)C(=O)NCCc1c[nH]c2ccccc12)c1ccccc1 (stereo unspecified),"inconclusive [inhibitor, partial curve, poor fit]",–
COc1cc(OC)c(C2=NOC(C(=O)N3CCCc4ccccc43)C2)cc1Cl (stereo unspecified),active: 13 µM,–
CCOC(=O)C1=CCC(c2ccc(C#N)cc2)N(S(=O)(=O)c2ccc(C)cc2)C1 (stereo unspecified),active: 18.4 µM,–
Cc1ccccc1-c1ccc2ncnc(N3CCOCC3)c2c1,"inconclusive [inhibitor, single point]",–
Cc1cc(C(=O)NC2CC(C)(C)Cc3c2cnn3-c2ccccc2)n(C)n1 (stereo unspecified),"inconclusive [inhibitor, single point]",–
CCC(NC(=O)NCc1cccnc1)(C(F)(F)F)C(F)(F)F,–,inactive: -16%
CCc1ccc(OCCCCCn2ccnc2)cc1,"inconclusive [inhibitor, partial curve]",–

Compound,Potency,"activity change, negative = growth inhibition"
Cc1ccc(CNC(=O)c2c[nH]n3c(=O)c(Cc4ccc(Cl)cc4)c(C)nc23)cc1,"inconclusive [inhibitor, single point]",–
CCOC(=O)[C@@H]1[C@H]2COc3ccccc3[C@@H]2N2C(=O)N(c3ccc(Cl)cc3)C(=O)[C@]12C,"inconclusive [inhibitor, single point]",–
COc1cc(OC)c(OC)cc1/C=C/c1nccc2ccccc12,"inconclusive [inhibitor, single point]",–
Cn1c(=O)c2c(nc(N3CCOCC3)n2CC(=O)C23CC4CC(CC(C4)C2)C3)n(C)c1=O,"inconclusive [inhibitor, partial curve]",–
O=S1(=O)CCOC[C@H](c2ccccc2)N1Cc1ccccc1,"inconclusive [inhibitor, single point]",–
O=C(COC(=O)/C=C/c1ccc2c(c1)OCO2)NC1CC1,–,inactive: -7.05%
COCCN(C(=S)Nc1cccc(Cl)c1C)C(C)c1ccco1 (stereo unspecified),"inconclusive [inhibitor, single point]",–
CCC(Cc1ccccc1)NC(=O)CN1C(=O)CSc2ncccc21 (stereo unspecified),"inconclusive [inhibitor, partial curve]",–
Cc1cc(C)c(S(=O)(=O)N2CCN(c3ccc([N+](=O)[O-])c(-n4nc(C)cc4C)c3)CC2)c(C)c1,active: 25.9 µM,–
Cc1ccccc1C(=O)Nc1c(C)nc2ccccn2c1=O,–,inactive: -18.1%
O=S(=O)(c1ccccc1)N(Cc1nc(-c2ccccc2)no1)C1CCCCC1,"inconclusive [inhibitor, single point]",–
O=C(CNC(=S)NC(=O)c1ccc(Br)o1)c1ccccc1,active: 16.4 µM,–
C(=NN1CCCCCC1)c1ccc2ccccc2n1,"inconclusive [inhibitor, single point]",–
OCc1nc2ccccc2n1CCCOc1ccc(Br)cc1,active: 16.4 µM,–
CCOC(=O)N1CCN(c2c(NCCCN3CCCCCC3)c(=O)c2=O)CC1,–,inactive: 12.5%
COc1cccc(Cn2c(NCc3cccnc3)nc3c2c(=O)n(C)c(=O)n3C)c1,active: 1.03 µM,–
NC(=O)c1ccc(C(F)(F)F)n(Cc2c(Cl)cccc2Cl)c1=O,"inconclusive [inhibitor, single point]",–
Cc1ccc(S(=O)(=O)N(Cc2ccccc2)C(C)C)cc1,active: 18.4 µM,–
CCCCCCCCCCC[N+](C)(C)CC/C=C1/c2ccccc2Sc2ccc(Cl)cc21,active: 5.8 µM,–
CCc1ccc(S(=O)(=O)c2cn(Cc3ccccc3F)c3cc(OC)c(OC)cc3c2=O)cc1,active: 14.6 µM,–
COc1ccc(C2c3ccc(O)cc3Oc3ncn4nc(-c5ccco5)nc4c32)cc1OC (stereo unspecified),active: 16.4 µM,–
O=C(NCCCN1CCOCC1)C(=O)N/N=C/c1ccccc1O,"inconclusive [inhibitor, single point]",–
CCOC(=O)c1cnc2c(ccc3ccccc32)c1NCCCN(C)C,"inconclusive [inhibitor, single point]",–
CCOC(=O)/C(C#N)=C/c1c(N2CCN(c3ccccc3)CC2)nc2ccccn2c1=O,–,inconclusive: -36.2% [inhibitor]

Compound,Potency,"activity change, negative = growth inhibition"
O=C(NC(c1ccc(Cl)cc1)c1ccsc1)C1CCN(Cc2cccc(C(F)(F)F)c2)CC1 (stereo unspecified),active: 4.11 µM,–
CCOc1ccc(NC(=O)C2CCCCN2S(=O)(=O)c2ccccc2)cc1 (stereo unspecified),"inconclusive [inhibitor, full curve, poor fit]",–
COc1ccc(NC(=O)CSc2nnc(NC(=O)NC3CCCCC3)s2)cc1OC,"inconclusive [inhibitor, single point]",–
O=c1[nH]c(/C(Cl)=C/c2c(F)cccc2Cl)nc2cc(Cl)ccc12,–,inactive: -14.5%
CCOc1ccc(C2c3[nH]c4ccccc4c3CCN2C(=O)CSCc2ccc(F)cc2)cc1 (stereo unspecified),"inconclusive [inhibitor, partial curve]",–
CCOc1ccc(CCNC(=O)c2cc([N+](=O)[O-])ccc2N2CCOCC2)cc1OCC,–,inactive: -24.7%
CC1CCN(S(=O)(=O)N2CCC(C(=O)NCCC3=CCCCC3)CC2)CC1,–,inconclusive: -31.2% [inhibitor]
CN(C)S(=O)(=O)c1ccc(N/C=C(\[N+](=O)[O-])S(=O)(=O)c2ccccc2)cc1,–,inactive: 0.564%
Cc1cccc(CNC(=O)c2ccc3nc(Cc4ccccc4)oc3c2)c1,active: 20.6 µM,–
CC1NC(=O)N(C)C2NC(=O)N(C)C(c3ccccc3)C12 (stereo unspecified),–,inactive: -14.9%
Cc1nc2ccc(S(=O)(=O)Nc3cccc(-c4nc5cccnc5s4)c3)cc2s1,"inconclusive [inhibitor, single point]",–
COc1cccc(NC(=O)CN(C)C(C)C(=O)NC(C)c2ccc(Cl)cc2Cl)c1 (stereo unspecified),"inconclusive [inhibitor, partial curve, poor fit]",–
Cc1ccc(CCNC(=O)c2c3c(nc4ccccc24)C(=O)N(C2CCCCC2)C3)cc1,active: 20.6 µM,–
Cc1cccc2c1-c1sc(C(=O)NCCCN3CCCC(C)C3)cc1CO2 (stereo unspecified),"inconclusive [inhibitor, single point]",–
CCOC(=O)[C@H]1[C@H]2COc3cc(OC)ccc3[C@@H]2N2C(=O)c3cc(C)ccc3NC(=O)[C@@]12C,"inconclusive [inhibitor, single point]",–
CC(C)n1cnc2c(Nc3ccc(C(=O)O)cc3)nc(Cl)nc21,–,inactive: -19.2%
Nc1nc(=S)[nH]c2c1C1(CCCCC1)Cc1ccccc1-2,"inconclusive [inhibitor, single point]",–
COc1ccc(-c2ccc(SCC(=O)c3ccccc3)nn2)cc1OC,"inconclusive [inhibitor, partial curve]",–
Cc1cc(S(=O)(=O)NCC(c2ccco2)S(=O)(=O)c2cccs2)ccc1F (stereo unspecified),"inconclusive [inhibitor, full curve, poor fit]",–
COc1ccc([C@H]2CC(=O)C[C@@H](CCn3cc(Cc4ccccc4)nn3)O2)cc1,–,inactive: -4.74%
CC12CCC(C(=O)Nc3ccc(SC(F)F)cc3)(CC1=O)C2(C)C (stereo unspecified),–,inconclusive: -24.1% [inhibitor]
COc1ccccc1N1CCN(C2CCCN(C(=O)c3cc(C)oc3C)C2)CC1 (stereo unspecified),"inconclusive [inhibitor, single point]",–
COc1ccccc1-c1nc(SC)n[nH]1,"inconclusive [inhibitor, single point]",–
